Results as given in PMC12136788.
The list shows a part of the results.

B1: 56799580_56800688_1359_CDS_ENSMUSG00000028431_ENSMUST00000030140|mouse|control|control (ssRNA)
RNA: GGGAGUUCUACAGUCCGACGAUCAGGUGGGACGACCGUCUGCCGAAAGACUGUCACCAACACCCUGUUUCCAUCAAUAACAGCCACAUUUGCCAAGUCAUUGGCACUAUUCCCAGAGCUCCGAUCAGUGGUCCAGUGCCAGUCCAACAGAGGAUUGAGCAUCA
B2: 56575270_56575390_1441_CDS_ENSMUSG00000013236_ENSMUST00000086828|mouse|control|control (ssRNA)
RNA: GGGAGUUCUACAGUCCGACGAUCGAUCAUGGUGGUGGCGCUGAGCAUGCGGGCCUGAACAUUCCUGGGAGCGCUGGCUGGUGCCUGCUCACCUGUGCGGGUCACCACCGAUUCACUGGGAGGGCCCUGGCCAAUGGAGUUGACCAACAGAGGAUUGAGCAUCA
B3: 66466729_66467468_1158_3pUTR_ENSMUSG00000024101_ENSMUST00000116556|mouse|control|control (ssRNA)
RNA: GGGAGUUCUACAGUCCGACGAUCACUCGAGCAGAGUGGCCCGGCCACUGGAGGGGUCAACCACCUCCUUAGGGGCUCCCUGAACAGAGGCUGUGUGGGCCAUGCUGCUGCUAGAGUCUUCUUCCCUGGCAACCUGGCCAGCAGCAACAGAGGAUUGAGCAUCA
B4: chr11:18536373:18536374:-_ENSG00000074319_ENST00000251968|hu_mus|FALSE|FALSE (ssRNA)
RNA: GGGAGUUCUACAGUCCGACGAUCAUAUGGGUAUGUGUCCAGCAGCCACAGGCAUAUUGGAAUAUUAUAUAUAUUACCUCGAUAACGCACUGGGAUUGUACCAGUGAGGUUCACCAGCUCCCUGGAACUGCCAUCAUUAAAAACCAACAGAGGAUUGAGCAUCA
B5: chr1:60041781:60041782:+_ENSMUSG00000041040_ENSMUST00000036540|mus_hu|mus_mus_mus_hu_False|38_78 (ssRNA)
RNA: GGGAGUUCUACAGUCCGACGAUCAAGUUUACAAUAGUAAAGUAAAUGCAGUAGUGGAAUGGCAAGUUUUAUUUUCCUUCACAAAAGAAAAUCUUUAGAUCUCAGUUCUAGUCUUGGACAUAGUGAAAGCUAUAAAUUCUGACUCAACAGAGGAUUGAGCAUCA
B6: chr2:5814250:5814251:-_ENSMUSG00000025816_ENSMUST00000102981|mus_hu|mus_mus_mus_hu_True|28_68 (ssRNA)
RNA: GGGAGUUCUACAGUCCGACGAUCUUCCUUUCCGGUUUCUGAAUUUCUGGUAGAACUGCACAGAAUGGUUUAAUAACUUCUAAAAAUUUGAUGCCCAUGGCUGCUGCUCAGCACACCCAGGGGGAAACCGCGGCCUCGGCGCUGCAACAGAGGAUUGAGCAUCA
B7: chr10:131959147:131959148:+_ENSG00000108010_ENST00000331244|hu_mus|FALSE|FALSE (ssRNA)
RNA: GGGAGUUCUACAGUCCGACGAUCCAGCUUUUUCAGGCGAAGGCUGAGGUCUUCUUUAAGAUGUUCAUUAGUACUAGGAGGAAAGGCUCCGCUAGACACGUGUCGCUGGACUUUUUUGGUCAACUCUGGGGCAUGUGCACCAUCCAACAGAGGAUUGAGCAUCA
B8: 44920601_44921948_1463_CDS_ENSG00000147050_ENST00000377967|human|control|control (ssRNA)
RNA: GGGAGUUCUACAGUCCGACGAUCCAUCAGUUUCUGUGCUGGAUUUAAAUUAUUUCUAUUUGCGCGGAGCUGUUCCAAAUGCUGUAAUUUCUGUGGUGUCAAACACCAUGAAUGAGCUUGUUGCUGUACUGGAGGAUGUGACACCAACAGAGGAUUGAGCAUCA
B9: chr12:48362563:48362564:+_ENSG00000134291_ENST00000256686|hu_hu|hu_hu_hu_mus_False|38_78 (ssRNA)
RNA: GGGAGUUCUACAGUCCGACGAUCUCCGUCAAGCCCUUCGAUAGACCCUUGCGGGGGUGGUAAAAACCACUUUGUAUGGGGAAGGAAAAGAAACGCCAACACACUUUCAAAAAGCGGGGGUGGGGUGAGGCGGGAGGGGGAGGUCAACAGAGGAUUGAGCAUCA
B10: chr13:98016622:98016623:+_ENSMUSG00000041773_ENSMUST00000041623|mus_mus|FALSE|FALSE (ssRNA)
RNA: GGGAGUUCUACAGUCCGACGAUCGACGAAUGCAGUAGGGAUCAGAGAGUAGGGAACAGUGGUUAUGCUGUUCCACACAUCUAAAGUUGGGUCGUAACAGUCCAAAGUCUUGCAGCGCUGAAUGCCGAAGUACCCUCCAACUACCAACAGAGGAUUGAGCAUCA
B11: chr16:94690093:94690094:+_ENSMUSG00000040785_ENSMUST00000117648|mus_hu|mus_mus_mus_hu_True|38_98 (ssRNA)
RNA: GGGAGUUCUACAGUCCGACGAUCGGGCUGGGAUGACAGCAGACAGCCCUCGAUUCCAGGGGGAAAAAGUCUUAGUCGAUACUAAUUAAAAAGUGUUUUUAUAAUUGGAAAAUCAGAUUACAUCUAUAAAAGAUGAAAAGCAAACAACAGAGGAUUGAGCAUCA
B12: chr3:102850973:102850974:+_ENSMUSG00000068823_ENSMUST00000029446|mus_hu|motif|central (ssRNA)
RNA: GGGAGUUCUACAGUCCGACGAUCACGGUGAUCUGAAUGGGAAUGAAAUGAAACCGUGCCCUUGGGAAGUUUUUUAAUCCGGAUAGCAUGAUUUCUUUGAGCAGAGAGCAUAUCAGGAACCACAGUAAACUCUACUUCAUCUGCCAACAGAGGAUUGAGCAUCA
B13: 31772456_31772576_291_3pUTR_ENSMUSG00000020300_ENSMUST00000109412|mouse|control|control (ssRNA)
RNA: GGGAGUUCUACAGUCCGACGAUCAGAGCUGUUGCUUUUCUAAAGGGUCUUGUUGUUCUUGCUGUUGACUUUUUGCUUUUUCUGACCCCAAGAUCUCAUCCUGAAUGUUAUGAGUAGCCGGGGCAGGAAAGAGCCAGGCUGACCCAACAGAGGAUUGAGCAUCA
B14: chr14:102449733:102449734:+_ENSG00000197102_ENST00000360184|hu_hu|motif|central (ssRNA)
RNA: GGGAGUUCUACAGUCCGACGAUCCAAUACCUGAAGUUUCUCAUACUCAUCAUCCCAAGUCUGAAAAACUUCAAAGCAUGCGGCCAUAACUUUUUCAAAUUCUUCAUAAGCAACAUGCAUCAAUUUCCUAGUGCCCAAUACUUUCAACAGAGGAUUGAGCAUCA
B15: chr17:26793470:26793471:+_ENSMUSG00000001576_ENSMUST00000167662|mus_mus|motif|central (ssRNA)
RNA: GGGAGUUCUACAGUCCGACGAUCAUUGGAAUCAGAGGAAAAAUUACAAAUGGCAGAGAAUCCAGCUACCCAUAAGAGACGGUUUAAGAAAAACAAAACCAAAACCAAACAAAAACAAAAAACCCCAAAACUUCCUACUGCAGGCAACAGAGGAUUGAGCAUCA
B16: chr6:41757443:41757444:+_ENSG00000214736_ENST00000398881|hu_mus|hu_hu_hu_mus_False|38_98 (ssRNA)
RNA: GGGAGUUCUACAGUCCGACGAUCGAACCGUGCAGAGACCAGAGAAUAGCCGACACUGGGGGAUGGGGGGGCAGUGGGGGGGGGUUCAGGCAAGGAGAAGAAAAGUGCUUCAGCUGCCACUCAGGUAGGAUCUUGUGGUCACAGCAACAGAGGAUUGAGCAUCA
B17: 184256411_184260012_446_CDS_ENSMUSG00000047539_ENSMUST00000051431|mouse|control|control (ssRNA)
RNA: GGGAGUUCUACAGUCCGACGAUCGGAAUCCACAUACUUCAUGAAGGUCAUAUUCAACAGUGACAACCUCGUUUCCACAGCGGCAAGGAUGUCUGCAUGACGAGCUAAAGAAUGGUUUCUUCUUUCUGACUCUCUCCUCGGUAGCAACAGAGGAUUGAGCAUCA
B18: chr3:184040909:184040910:+_ENSG00000114867_ENST00000411531|hu_hu|motif|central (ssRNA)
RNA: GGGAGUUCUACAGUCCGACGAUCGCCAAGGUUGGCAAAGGAUGGAGUGAAGUCUGGGCCACAAUUUAUGCCUUGUAGUCGGGUGGGAUCCAGUGGCCGCAGUGGUGUUUUAUUGGCCUUGUCCAGCACCACGUCACUGAUAUGCAACAGAGGAUUGAGCAUCA
B19: chr4:137866854:137866855:+_ENSMUSG00000028757_ENSMUST00000030538|mus_hu|FALSE|FALSE (ssRNA)
RNA: GGGAGUUCUACAGUCCGACGAUCGUCAUCGCCAUCAAAGGGGACCCAUUUGCCAUUUGAGAGCUGCUGGAUCACGAUGCUAUACUCCACUAGGUCAGUGACAGUGUAGGCAUUGGGUGGGGCUGUCUCGCCCACCCGAUGAUGCAACAGAGGAUUGAGCAUCA
B20: 53243573_53243693_1779_CDS_ENSG00000177200_ENST00000398510|human|control|control (ssRNA)
RNA: GGGAGUUCUACAGUCCGACGAUCUGUUUUUGUUUUUUUGCUGUCUUUGUCCUUUGGCUUGGAUUUCAUCCUUCUACCUUUCUUUUCCUCUUUUCCUUCAACUGAAGCAGUAGGAAAGUUUUCAGGGCUCAUUACUCGUGGAAUCAACAGAGGAUUGAGCAUCA
B21: 36898635_36898755_1001_CDS_ENSMUSG00000034243_ENSMUST00000039855|mouse|control|control (ssRNA)
RNA: GGGAGUUCUACAGUCCGACGAUCAAGCUGAUGCAUCUCUUCUUGAAGGUUAUGGAAGGAUAACUUUCUCUCUGCCACUUCGAGUUCUACCUUUUCCAUCAGGGUCUUGGACUCCUGUCUUUCUGUUUCCAUGGUAUUCUUUAACAACAGAGGAUUGAGCAUCA
B22: chrX:98862621:98862622:+_ENSMUSG00000034160_ENSMUST00000044475|mus_hu|mus_mus_mus_hu_False|18_88 (ssRNA)
RNA: GGGAGUUCUACAGUCCGACGAUCCUGCAUCUCCUUUAGAGUGUUUCCCAUAUUGGAGUAGGCAUCAGCAAAGGUAGGACUGAUUCGAAUAGCCUCCUUAUAAUGCAUCAGAGCUUCCUGCAGCUUGCCCUGCUGCUGCAGUACCAACAGAGGAUUGAGCAUCA

Each binder was assayed against T1, UNK ZnF1-3 (human, UniProt Q9C0B0 31-174) (assay: nsRBNS (natural sequence RNA bind-n-seq); RBNS binding buffer (assumed for nsRBNS): 25 mM Tris pH 7.5, 150 mM KCl, 3 mM MgCl2, 0.01% Triton X-100, 500 ug/ml BSA, 20 U/ml SUPERase-In, 4 C; UNK is unkempt and MSI1 is Musashi-1; names of the RNAs are library labels; protein concentration not given here; high values mean tight binding).
T1 sequence: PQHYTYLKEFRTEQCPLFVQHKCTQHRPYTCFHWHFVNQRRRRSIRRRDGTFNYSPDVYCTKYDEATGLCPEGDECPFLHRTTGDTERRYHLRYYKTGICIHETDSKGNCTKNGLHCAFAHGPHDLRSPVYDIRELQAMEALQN
Work on B1 yielded a binding signal of 0.638 enrichment R.
With B2 the binding signal was 0.737 enrichment R.
In the case of B3, the binding signal is reported as 0.498 enrichment R.
For B4, the binding signal was 1.08 enrichment R.
Binder B5 has a binding signal of 0.455 enrichment R.
For B6, the binding signal was 1.12 enrichment R.
Binder B7 has a binding signal of 1.03 enrichment R.
B8 was tested, and the binding signal was 1 enrichment R.
Work on B9 yielded a binding signal of 1.65 enrichment R.
For B10, the binding signal was 0.841 enrichment R.
With B11 the binding signal was 2.05 enrichment R.
B12 showed a binding signal of 1.23 enrichment R.
Binder B13 has a binding signal of 0.502 enrichment R.
Binder B14 has a binding signal of 0.702 enrichment R.
For B15, the binding signal was 2.93 enrichment R.
B16 was tested, and the binding signal was 1.49 enrichment R.
In the case of B17, the binding signal is reported as 0.704 enrichment R.
B18 gave a binding signal of 1.1 enrichment R.
B19 showed a binding signal of 0.792 enrichment R.
Work on B20 yielded a binding signal of 0.173 enrichment R.
For B21, the binding signal was 0.521 enrichment R.
B22 showed a binding signal of 0.914 enrichment R.
